# Source: the supplement of paper PMC3334620
# Over roughly 33,000 sequences, “E-score (-0.5 to 0.5)” has its median near -0.041; the highest 2% begin near 0.37. This is one part of the list.
# Molecular target: T1, Ecm22 (UniProt Q05958)
# T1 sequence: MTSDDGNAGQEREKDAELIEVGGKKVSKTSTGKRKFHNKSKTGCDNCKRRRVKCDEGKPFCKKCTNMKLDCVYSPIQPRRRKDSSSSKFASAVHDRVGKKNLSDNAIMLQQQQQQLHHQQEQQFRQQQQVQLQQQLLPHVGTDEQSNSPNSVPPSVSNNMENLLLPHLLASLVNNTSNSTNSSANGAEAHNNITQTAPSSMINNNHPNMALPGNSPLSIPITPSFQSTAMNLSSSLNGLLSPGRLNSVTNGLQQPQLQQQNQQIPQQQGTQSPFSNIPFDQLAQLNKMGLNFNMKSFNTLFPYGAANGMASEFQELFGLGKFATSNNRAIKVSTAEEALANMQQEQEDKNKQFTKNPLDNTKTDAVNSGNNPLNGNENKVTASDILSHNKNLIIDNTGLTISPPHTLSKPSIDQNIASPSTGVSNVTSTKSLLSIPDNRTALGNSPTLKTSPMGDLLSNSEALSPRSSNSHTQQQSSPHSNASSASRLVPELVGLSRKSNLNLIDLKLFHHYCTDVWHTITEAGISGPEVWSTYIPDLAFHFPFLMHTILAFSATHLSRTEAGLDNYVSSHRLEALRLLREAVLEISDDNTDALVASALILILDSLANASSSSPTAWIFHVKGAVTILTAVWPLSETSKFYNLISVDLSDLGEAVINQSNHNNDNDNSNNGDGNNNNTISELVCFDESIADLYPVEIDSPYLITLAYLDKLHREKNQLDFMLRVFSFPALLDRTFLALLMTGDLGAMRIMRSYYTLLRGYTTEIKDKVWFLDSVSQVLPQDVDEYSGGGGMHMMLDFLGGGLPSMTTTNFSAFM
# Test: PBM E-score (8-mer binding enrichment) (E-score (-0.5 to 0.5)); higher = stronger / more preferred TF binding; most listed sequences are background and not binding sites
# Conditions: protein concentration: 200 nM; construct: GST-full length
# Protocol: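 Universal 'all 10-mer' protein binding microarrays (Agilent AMADID 015681) probed with GST-tagged S. cerevisiae TFs (full-length or DBD) made by in vitro transcription/translation (PURExpress), about 100-200 nM. Bound TF was detected with fluorescent anti-GST. Each ungapped 8-mer (which stands for itself and its reverse complement) is scored by the PBM enrichment score (E-score), a modified Wilcoxon-Mann-Whitney statistic from -0.5 to +0.5, computed with the Universal PBM Analysis Suite. Scale: above 0.35 generally sequence-specific binding.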
row,Sequence,PBM E-score
1,ACACTTTG,-0.0412
2,GAATTAGA,-0.0857
3,GCTGCAAA,0.0183
4,AGCTCGTC,0.0121
5,TTATGAAA,-0.0342
6,CCGCAAAA,0.108
7,ATTAGACC,-0.0997
8,GTGGGAAA,-0.0405
9,CAACGACC,0.278
10,CCGATTCA,-0.0589
11,CGGGCCCA,-0.313
12,AGGACCCC,-0.202
13,CCGGGTAC,0.291
14,CTCACCCA,-0.134
15,AAATTCAT,-0.129
16,ATCGTCCG,0.103
17,CACCCGTA,0.239
18,ACTTCATG,-0.077
19,AGAGGAGC,0.00865
20,CCGCGAAC,0.109
21,AACAGTTA,-0.1
22,AATCCATG,-0.235

row,Sequence,PBM E-score
1,ACGCGCCG,0.0979
2,AGGGCACT,-0.202
3,GAGGGAAA,-0.0267
4,GCTACGCC,-0.22
5,CTCCCATA,-0.186
6,ATCTCTTG,-0.156
7,ATTGCAGA,-0.151
8,CCGTAACC,0.15
9,ACAGCCAC,-0.221
10,CACCCTGG,-0.102
11,CCTCATGC,-0.156
12,ACTCTGAG,-0.117
13,CCCCTTTA,-0.173
14,CGGTCGTC,-0.0294
15,ACCATGGT,0.0115
16,CACGGGAA,-0.0917
17,ATACTCTC,0.091
18,CCCCCACC,-0.317
19,GAGAACCA,-0.098
20,CCCAGACG,-0.0164
21,AGGCTCAG,-0.211
22,CCTAGGTA,-0.142

row,Sequence,PBM E-score
1,GGCGGAAA,-0.0985
2,ATACCCCC,-0.192
3,CGGGAAAC,0.251
4,CGAGCAGC,0.163
5,GAGGATCA,-0.132
6,GTGGTTGA,-0.189
7,TGCGGCCA,-0.131
8,AATTTAGT,0.0213
9,AGATGGAA,0.0413
10,AAGGCGTA,0.024
11,CGGTTCGC,0.151
12,CCAAATGG,-0.134
13,ATAGGCTG,-0.0836
14,ACTATGTC,-0.0189
15,AGCCTTGC,0.0339
16,AGTCAGGG,-0.37
17,ACGTAGGG,-0.161
18,GCTTCGAC,-0.151
19,GAAACTTA,-0.0558
20,CGTAGAAA,0.249
21,AGATTCAT,-0.191
22,AGGAAGCA,-0.105

row,Sequence,PBM E-score
1,AGTTTTTA,0.0856
2,CAGTCGCC,-0.21
3,TGAACCCA,-0.0944
4,CCTGAGGA,-0.0862
5,CAAGTGGA,-0.263
6,AAACTTTA,-0.0596
7,CGTACTAC,0.382
8,AATCTGGT,-0.0595
9,CACAACAA,0.015
10,AGCCGGAT,-0.0402
11,GCTCAGCA,0.0792
12,TAGTCCGA,0.123
13,GACCAAAC,0.026
14,AAGTATTA,-0.183
15,ACACCCGC,-0.134
16,AATAGGTG,-0.111
17,ACCCCTAC,-0.285
18,CTTGGACA,-0.0203
19,AAAAACAT,-0.0306
20,AGCCCTAT,-0.153
